# Data published in PMC4336329 (PLoS ONE, 2015).
# Hit rate of the full screen: of about 310,000 compounds, about 2,200 (0.71%) showed an effect of 50% or more. Effects have a minus sign here. The list shows a part of the results.
# Molecular target: human ether-à-go-go-related gene (hERG) potassium channel (human, UniProt Q12809)
# Assay: primary screen, population patch clamp on CHO cells stably expressing hERG
# Chain of human ether-à-go-go-related gene (hERG) potassium channel (Q12809 whole entry, looked up): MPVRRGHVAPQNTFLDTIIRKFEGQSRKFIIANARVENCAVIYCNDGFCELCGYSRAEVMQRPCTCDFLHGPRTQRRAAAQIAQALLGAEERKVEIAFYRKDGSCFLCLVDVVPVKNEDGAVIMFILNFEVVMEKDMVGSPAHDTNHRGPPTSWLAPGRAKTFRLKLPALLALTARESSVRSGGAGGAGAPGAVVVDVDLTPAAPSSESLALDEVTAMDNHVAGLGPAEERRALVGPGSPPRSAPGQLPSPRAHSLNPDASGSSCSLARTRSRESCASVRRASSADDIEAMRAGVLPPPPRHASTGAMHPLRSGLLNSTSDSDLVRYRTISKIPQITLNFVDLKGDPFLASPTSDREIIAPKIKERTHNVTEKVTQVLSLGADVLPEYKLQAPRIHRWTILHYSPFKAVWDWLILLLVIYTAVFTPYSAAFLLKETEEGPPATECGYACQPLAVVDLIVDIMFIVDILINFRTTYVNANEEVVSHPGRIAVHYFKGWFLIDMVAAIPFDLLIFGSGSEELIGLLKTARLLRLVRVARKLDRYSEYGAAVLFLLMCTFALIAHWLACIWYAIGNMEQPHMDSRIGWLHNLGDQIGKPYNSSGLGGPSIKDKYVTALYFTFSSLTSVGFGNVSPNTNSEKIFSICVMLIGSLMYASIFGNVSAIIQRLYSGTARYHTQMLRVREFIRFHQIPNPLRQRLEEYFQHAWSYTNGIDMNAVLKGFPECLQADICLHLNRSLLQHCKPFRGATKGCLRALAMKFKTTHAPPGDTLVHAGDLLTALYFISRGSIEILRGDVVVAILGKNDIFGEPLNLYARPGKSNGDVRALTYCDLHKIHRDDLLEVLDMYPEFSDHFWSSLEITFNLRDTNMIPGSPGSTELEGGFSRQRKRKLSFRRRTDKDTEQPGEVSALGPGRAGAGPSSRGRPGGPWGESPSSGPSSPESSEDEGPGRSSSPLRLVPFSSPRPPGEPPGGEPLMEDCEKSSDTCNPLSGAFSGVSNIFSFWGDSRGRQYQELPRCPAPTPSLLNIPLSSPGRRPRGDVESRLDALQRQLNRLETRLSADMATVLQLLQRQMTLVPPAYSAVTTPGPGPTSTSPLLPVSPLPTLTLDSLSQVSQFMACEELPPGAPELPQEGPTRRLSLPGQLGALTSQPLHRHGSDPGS
row,SMILES,"hERG current change (%, negative = inhibition) at 1uM [%]"
1,CC1(C)CC2(CCO1)CNC(=O)O2 (stereo not drawn),5.88
2,COc1ccc(/C=N\NC(=O)c2cc3c(ccc4ccccc43)o2)cc1O,12.7
3,COc1ccc(/C=N/Nc2nc(-c3ccc(C)cc3)c(NC(C)=O)s2)cc1OC,3.93
4,CS/C(N)=N/N=C/c1cc(Br)cc(Br)c1O,12.1
5,Cc1ccc(S(=O)(=O)Oc2ccc(N3C(=O)C4C5CCC(C5)C4C3=O)cc2)cc1 (stereo not drawn),11
6,CCOc1ccc2ccccc2c1C1NC(=S)N(C)C(C)=C1C(=O)OC (stereo not drawn),6.89
7,COc1c(C=O)c(CCN(C)C(=O)c2ccc(F)cc2)cc2c1OCO2,9.69
8,c1csc(-c2nc(NCCCN3CCOCC3)c3ccccc3n2)c1,-8.13
9,CCc1ccccc1NC(=O)c1cc(S(=O)(=O)N(C)C)ccc1N1CCCC1,1.37
10,O=C(CSc1ccc([N+](=O)[O-])cc1)NNC(=O)c1ccccc1F,-9.82
11,O=C(OCC(=O)N1CCCCCC1)c1ccc([N+](=O)[O-])cc1Cl,10.9
12,CC1(C)OC(c2ccccc2)=C/C(=C\C=N\NC(=O)c2ccncc2)O1,10.4
13,Cc1ccc(S(=O)(=O)N2CCN(C(=O)C3=COCCO3)CC2)cc1C,-7.86
14,Cc1nn(Cc2c(F)c(F)c(F)c(F)c2F)c(C)c1NC(=O)c1c([N+](=O)[O-])c(C)nn1C,18.8
15,O=C1CCC([N+](=O)[O-])C(c2ccc(Br)cc2)N1 (stereo not drawn),15.1
16,O=C(CN1CCN(c2ccccc2)CC1)N/N=C/c1cccc(F)c1,14.1
17,Cc1ccc(/C=C2/NC(=O)N(Cc3ccccc3F)C2=O)s1,12
18,CCOC(=O)C1=C(COC(=O)CNC(=O)c2ccccc2F)NC(=O)NC1C (stereo not drawn),7.48
19,COc1ccc(N2CC(C(=O)NNC(=O)c3ccc(Br)cc3)CC2=O)c(OC)c1 (stereo not drawn),5.14
20,CCN(CC)CCCN=C(C)c1c(O)n(C2CCCCC2)c(=O)[nH]c1=O,-22.1
21,CCc1nn(CCCC(=O)N2CCN(c3ccc(OC)cc3)CC2)c(=O)c2cc3occc3n12,-0.618
22,CCOC(=O)C(C)Oc1cccc2c(=O)n(CC(=O)Nc3ccc(OCC)cc3)ccc12 (stereo not drawn),1.46

row,SMILES,"hERG current change (%, negative = inhibition) at 1uM [%]"
1,O=C(Cc1cccc(NC(=O)C2CCN(C(=O)C3CCCCC3)CC2)c1)Nc1cccc(C(=O)N2CCCC2)c1,5.8
2,Nc1ccc(/C=C/C(=O)c2ccco2)cc1,1.26
3,COc1ccc(CN2CCN(C3CCOCC3)CC2CCO)c(C)c1C (stereo not drawn),15.2
4,CC(OC(=O)/C=C/c1ccccc1)C(=O)Nc1ccc(C(N)=O)cc1 (stereo not drawn),10.3
5,Cc1cc(C(C)c2ccccc2)c(O)c(CN2CCOCC2)c1C (stereo not drawn),15.6
6,CC(C)C[C@@H](CO)N(Cc1ccccc1)S(=O)(=O)N(Cc1ccccc1)[C@H](CO)CC(C)C,15.7
7,O=C(c1ccc2oc(Cc3ccc(Cl)cc3)nc2c1)N1CCCCC1CCO (stereo not drawn),6.56
8,CCc1ccc(CN(C)C(=O)c2cc(COc3cccc4cnccc34)on2)cc1,6.54
9,O=C(CCc1nnc(-c2ccc3c(c2)OCO3)o1)NC(c1ccccn1)C(F)(F)F (stereo not drawn),8.3
10,CCC(c1nnnn1C(C)(C)C)N1CCN(Cc2ccccc2OC)CC1.Cl (stereo not drawn),7.97
11,CC(=O)NCCn1c(SCC(=O)NCCc2ccc(S(N)(=O)=O)cc2)nc2ccccc2c1=O,10.6
12,Cc1csc(NC(=O)CSc2ccc3nnc(CCNS(=O)(=O)c4ccccc4)n3n2)n1,13.1
13,COC(=O)C1=C(C)NC(C)=C(C(=O)OC)C1c1ccc(OC(=O)c2ccco2)cc1,8.64
14,CCOc1ccc(C2C(C(=O)c3ccco3)=C(O)C(=O)N2Cc2cccnc2)cc1 (stereo not drawn),11.7
15,CCCC(=O)N1CCN(c2ccc(NC(=S)NC(=O)c3cccc(C)c3)cc2)CC1,9.45
16,Cc1nccn1CC(=O)N/N=C/c1cccs1,16.7
17,CNC(=S)N/N=C/c1ccc(-c2ccc(C(=O)O)cc2)o1,7.89
18,O=C(ONC1=NCCCCC1)c1cccc([N+](=O)[O-])c1,11.8
19,COC(=O)c1ccccc1NC(=O)N1CCN(c2ccccc2F)CC1,4.17
20,COc1ccc(C(=O)Nc2cc(C)on2)cc1,16.6
21,Cc1cccc(C(=O)NNC(=O)CCCCC(=O)NNC(=O)c2cccc(C)c2)c1,12.8
22,CCCNS(=O)(=O)c1ccc(OCC(=O)Nc2ccc3c(c2)OCO3)cc1,12.7

row,SMILES,"hERG current change (%, negative = inhibition) at 1uM [%]"
1,COc1ccc(C(C(=O)NCc2ccc(F)cc2)N(Cc2cccnc2)C(=O)c2snc(C(N)=O)c2N)cc1 (stereo not drawn),-4.6
2,O=C1NC(=O)C2(COC3(CCCC3)OC2)S1,8.97
3,COc1ccc(C(=O)/C=C\c2ccc(NC(=O)c3cccs3)cc2)cc1,9.76
4,CCc1ccc2oc(-c3ccc(OC)cc3)cc(=[NH+]c3c(C)n(C)n(-c4ccccc4)c3=O)c2c1.F[B-](F)(F)F,-33.7
5,Cc1ccc(NC(=O)CCNS(=O)(=O)c2ccccc2)c(C(=O)c2ccccc2)c1,21.4
6,CN(CCn1ccnc1)Cc1cn(Cc2ccccc2)nc1-c1ccc2c(c1)OCO2,15.4
7,COc1ccccc1N/N=C(\C#N)C(=N)N1CCOCC1,9.2
8,O=C(/C=C/c1c(Cl)cccc1Cl)n1cccn1,11.5
9,CC(Nc1ccccc1)c1cccnc1 (stereo not drawn),4.59
10,O=[N+]([O-])c1ccccc1S(=O)(=O)n1cnc2ccccc21,14.6
11,NS(=O)(=O)c1ccc(CNC(=O)c2ccc(Br)o2)cc1,1.09
12,c1ccc(-n2nnnc2N2CCOCC2)cc1,7.82
13,O=C(Cc1ccccc1)N/N=C/C=C/c1ccccc1[N+](=O)[O-],12.5
14,COc1ccc(-n2cc(CNCC3CCOCC3)c(-c3cccc(F)c3)n2)cc1,-8.59
15,Cc1ccn2cc(-c3ccc(O)c(O)c3)nc2c1.Cl,10.5
16,Cl.OC(CN1C2=NCCN2c2ccccc21)c1ccccc1 (stereo not drawn),-5.32
17,CCOC(=O)N1CCN(C(=O)c2cccc(NC(=O)c3ccco3)c2)CC1,1.9
18,Cc1cccc(CC(=O)N2CCCC2)c1,12.6
19,Cn1c(SCC(=O)NC2CCCCCC2)nnc1-c1cccs1,-9.47
20,CCOc1ccc(N=Cc2c(O)c3ccccc3oc2=O)cc1,7.72
21,COc1cc2c(cc1NC(=O)C(C)Sc1ccc(NC(C)=O)cc1)oc1ccccc12 (stereo not drawn),6.08
22,O=C(NCc1ccc(F)cc1)C(c1ccccc1)c1ccccc1,8.11

row,SMILES,"hERG current change (%, negative = inhibition) at 1uM [%]"
1,Cc1ccc(S(=O)(=O)N(C)CC(=O)NCC(c2ccco2)N(C)C)cc1 (stereo not drawn),4.17
2,COc1ccccc1C(=O)N1CC(=O)Nc2ccc(C)cc2C1c1ccc(F)cc1 (stereo not drawn),-22
3,CS(=O)(=O)c1ccc(Cl)c(NC(=O)COC(=O)CCN=C2NS(=O)(=O)c3ccccc32)c1,-14
4,CC(C)c1ccc(NC(=O)c2cc([N+](=O)[O-])ccc2N2CCOCC2)cc1,-5.4
5,O=C(COc1ccccc1)Nc1ccc(Cl)cc1C(=O)c1ccccc1,6.97
6,COc1ccccc1/C=C/C(=O)NCC(=O)N/N=C(/C)c1ccc(Cl)cc1,16
7,O=C(Cc1cccs1)Nc1ccc(N2CCOCC2)cc1,19.6
8,CCc1ccccc1S(=O)(=O)Cc1ccc(C(=O)N2CCN(c3ccccc3OC)CC2)o1,-3.08
9,CCOC(=O)c1[nH]c(CSc2nnc(-c3ccncc3)n2CCOC)c(C(=O)OCC)c1C,-3.93
10,COc1ccc(-c2c(C#N)c(N)n(N)c(=O)c2C#N)cc1Cl,14.6
11,Cc1cc2cc3c(cc2nc1SCc1ccccn1)OCCO3,11.9
12,COc1ccc(N(CC(=O)N2CCN(c3cccc(C)c3C)CC2)S(=O)(=O)c2c(C)noc2C)cc1,13.2
13,N#Cc1c(N)nc(SC2CCCCC2=O)c(C#N)c1-c1ccco1 (stereo not drawn),-2.08
14,COc1cccc(CN(CC(=O)NCc2ccccc2)S(=O)(=O)CCl)c1,10.6
15,COc1ccc(C(=O)NCC(=O)NCC(=O)OCC(=O)c2cccs2)cc1,6.28
16,C=CCNC(=S)N/N=C(\C)c1ccc(-n2ccnc2)cc1,0.524
17,O=C(COC(=O)CNC(=O)C1CCCCC1)Nc1cccc(F)c1,4.51
18,CCOC(=O)c1c(NC(=O)c2cc(-c3ccc(O)cc3)on2)sc(C(C)=O)c1C,11.5
19,CC(=O)N1CCN(c2ccc(NC(=O)c3ccc4c(c3)OCO4)cc2)CC1,1.35
20,CCOC(=O)c1cnc(C(C)(C)C)[nH]c1=O,8.69
21,CNC(C)c1cc(OC)ccc1OC (stereo not drawn),14.1
